Test results published in PubChem BioAssay AID1030 (National Center for Advancing Translational Sciences (NCATS), 2008).
The campaign covered roughly 220,000 compounds. About 16,000 (7.3%) were called active. Inconclusive results, whose numbers are uncertain, are shown with a selection of clear calls. Calls follow the shape of the dose curve; as a rule, active = well fitted inhibition curve with a large enough effect (not every such curve was filed as active); inconclusive = small, poorly fitted or top-dose-only effect, or another doubt; inactive = no such curve, though single readings can be large or run the other way. No potency is given beside an inconclusive call; the fits are too rough.

biological target: Aldehyde dehydrogenase 1A1 (Homo sapiens) (UniProt P00352); assay: qHTS Assay for Inhibitors of Aldehyde Dehydrogenase 1 (ALDH1A1); details: Purified ALDH1A1, NADH fluorescence, propionaldehyde substrate; series mostly up to 75.3 µM; activity, negative = inhibition: at the top concentration;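 as to activity, negative = inhibition: plate controls were no enzyme wells and a reference inhibitor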
Potency is read from the fitted curve at half-maximal effect; tags tell the direction and shape of the fitted curve.

UniProt P00352, sequence (P00352 whole entry, looked up): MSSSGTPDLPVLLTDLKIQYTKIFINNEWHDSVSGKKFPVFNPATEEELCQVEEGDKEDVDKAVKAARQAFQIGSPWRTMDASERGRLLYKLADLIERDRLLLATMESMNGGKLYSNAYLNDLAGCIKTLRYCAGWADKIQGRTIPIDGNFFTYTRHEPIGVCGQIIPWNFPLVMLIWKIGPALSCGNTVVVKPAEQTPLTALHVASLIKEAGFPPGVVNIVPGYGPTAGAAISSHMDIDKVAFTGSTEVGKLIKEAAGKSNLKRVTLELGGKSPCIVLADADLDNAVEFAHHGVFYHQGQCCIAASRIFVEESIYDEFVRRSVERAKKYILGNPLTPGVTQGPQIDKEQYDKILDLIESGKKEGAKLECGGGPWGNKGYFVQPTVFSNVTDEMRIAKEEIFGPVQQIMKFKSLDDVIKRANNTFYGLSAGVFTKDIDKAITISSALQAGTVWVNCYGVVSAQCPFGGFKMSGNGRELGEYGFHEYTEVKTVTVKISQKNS

| SMILES | activity, negative = inhibition | Potency |
| --- | --- | --- |
| COC(=O)c1ccccc1NC(=O)Nc1ccc(Br)cn1 | inactive: 5.45% | – |
| COCC(C)N=C1NN=C(c2ccc(NC(C)=O)cc2)CS1 (centres undefined) | – | inconclusive [inhibitor, single point] |
| Cc1nc2ccccc2c(=O)n1/N=C/c1ccccc1 | inactive: -0.498% | – |
| CC(NC(=O)COC(=O)c1ccc2ccccc2n1)C1CC2CCC1C2 (centres undefined) | – | inconclusive [inhibitor, single point] |
| O=C(Oc1cc(=O)oc2ccccc12)c1cccnc1Cl | – | inconclusive [inhibitor, full curve] |
| COc1ccc(NC(=O)COC(=O)CNC(=O)c2cc(OC)c(OC)c(OC)c2)cc1 | – | inconclusive [inhibitor, single point] |
| O=C(Nc1ccccc1C(=O)OCc1nnc(-c2ccccc2)o1)c1ccco1 | – | inconclusive [inhibitor, single point] |
| CC(=O)c1cccc(NC(=O)C(OC(=O)/C=C/c2ccc3c(c2)OCO3)c2ccccc2)c1 (centres undefined) | – | inconclusive [inhibitor, single point] |
| COCC(C)OC(=O)C(C#N)c1nc2ccccc2nc1N1CCN(Cc2ccccc2)CC1 (centres undefined) | – | inconclusive [inhibitor, partial curve] |
| COc1ccc(C(=O)CSc2nnc(-c3ccco3)n2CC2CCCO2)cc1 (centres undefined) | – | inconclusive [inhibitor, single point] |
| CCOc1ccc2c(c1)C(C)=CC(C)(C)N2C(=O)Nc1ccccc1 | – | inconclusive [inhibitor, partial curve] |
| NC(=O)CSc1nccn1Cc1ccccc1 | – | active: 10 µM |
| Cc1ccc(S(=O)(=O)c2c(N)n(Cc3ccco3)c3nc4ccccc4nc23)cc1 | – | inconclusive [inhibitor, partial curve] |
| CCOC(=O)N1CCC(NC(=O)c2cc(S(=O)(=O)NCCc3ccccc3)ccc2F)CC1 | – | inconclusive [inhibitor, single point] |
| Cc1cccc(C(=O)Oc2ccc(/C=N/NC(=O)c3ccncc3)cc2)c1 | – | inconclusive [inhibitor, partial curve] |
| Cc1ccc(S(=O)(=O)N2CCN(C(=O)CN3CCOCC3)C2C(C)C)cc1 (centres undefined) | – | inconclusive [inhibitor, single point] |
| O=C(NCc1ccco1)c1cc(-c2cccs2)on1 | – | active: 22.4 µM |
| CSC1=C(C#N)C(c2sccc2C)CC(=O)N1 (centres undefined) | – | active: 10 µM |
| COc1ccc(/C=C/C(=O)NC(=S)NNC(=O)Cc2cccs2)cc1OC | – | inconclusive [inhibitor, partial curve] |
